Where “and” joins values, the source holds several entries; their conditions need not be identical. Equal values may be shown once. At least one peptide structure holds a part that was inferred or is arguable (an end, a ring closure or a residue).
Key:
[1] = test system: clinical isolates of Pseudomonas aeruginosa; format: cell-based; details: geometric mean, 6 clinical isolates of P. aeruginosa
S. aureus = test: MIC geometric mean over 17 strains of S. aureus; format: cell-based, Staphylococcus aureus; details: 8 MRSA and 9 MSSA
A. baumannii = test: MIC geometric mean over 14 strains of A. baumannii; format: cell-based, Acinetobacter baumannii; details: 7 of which resistant to polymyxin B and colistin
[2] = RP-HPLC temperature profiling, peptide self-association; format: physicochemical; details: 5-77° C., 0.5% acetonitrile/min; for Tp, temperature of maximum retention time: pH 2 (Table 2); for PA, self-association parameter: pH 2, relative to control peptide RC (Table 2)
[3] = Circular dichroism spectroscopy, helical structure; format: physicochemical; details: for 50% TFE % Helix / Benign % Helix: relative to D38 in 50% TFE; for 50% TFE [θ]222: 222 nm, benign buffer containing 50% TFE; for 50% TFE [θ]222 / Benign [θ]222: 5° C.; for Benign % Helix: benign buffer; for Benign [θ]222: mean residue molar ellipticity at 222 nm, benign buffer pH 7.0
[4] = test system: A. baumannii clinical isolates; test: MIC, microtiter dilution in Mueller Hinton medium; format: cell-based; details: geometric mean, 7 clinical isolates of A. baumannii
[5] = test system: Methicillin-resistant Staphylococcus aureus (MRSA) strains; format: cell-based; details: geometric mean, 8 MRSA strains
[6] = test system: A. baumannii strains resistant to Polymyxin B and Colistin; format: cell-based; details: geometric mean, 7 A. baumannii strains resistant to polymyxin B and colistin
[7] = RP-HPLC retention time as measure of overall peptide hydrophobicity; format: physicochemical; details: for Hydrophobicity tR: RP-HPLC at pH 2, 25 C; for Difference in overall hydrophobicity (tR): to the analog with identical polar face without specificity determinants (D33/D37, D34/D38, D35/D39, D36/D40)
From the text: Retention behavior in RP-HPLC is an excellent method to represent overall peptide hydrophobicity. Retention times of peptides are highly sensitive to the conformational status of the peptides upon interaction with the hydrophobic environment of the column matrix (Jiang, Z., et al., Chem. Biol. Drug Des. 2011; Chen, Y., et al., J. Peptide Research 2002, supra). The non-polar faces of amphipathic alpha-helical and amphipathic cyclic beta-sheet peptides represent a preferred binding domain for interaction with the hydrophobic matrix of the reversed-phase column (Zhou, N. E., et al., Peptide Research 1990, 3:8-20). In this study, the observed peptide hydrophobicity was determined by RP-HPLC retention time as described in the methods section and are relative hydrophobicities because they are dependent on the TFA concentration and organic solvent in the mobile phase, gradient rate, temperature, flow rate and the column used. […]

[8] = test system: Methicillin-sensitive Staphylococcus aureus (MSSA) strains; format: cell-based; details: geometric mean, 9 MSSA strains

SMILES	MICGM [1] [µM]	S. aureus MICGM (S. aureus) [µM]	A. baumannii MICGM (A. baumannii) [µM]	Tp, temperature of maximum retention time [2] [°C]	PA, self-association parameter [2] [min]	Δ[θ]222 TFE-benign [3]	50% TFE % Helix [3] [%]	50% TFE [θ]222 [3]	Benign % Helix [3] [%]	Benign [θ]222 [3]	MICGM [4] [µM]	MICGM [5]	MICGM [6] [µM]	Hydrophobicity tR [7] [min]	Difference in overall hydrophobicity (tR) [7] [min]	MICGM [8]
CC(=O)N[C@H](C)C(=O)N[C@H](CC(C)C)C(=O)N[C@H](CCCCN)C(=O)N[C@H](CO)C(=O)N[C@H](CC(C)C)C(=O)N[C@H](CC(C)C)C(=O)N[C@H](CCCCN)C(=O)N[C@@H](C(=O)N[C@H](CC(C)C)C(=O)N[C@H](CO)C(=O)N[C@H](CCCCN)C(=O)N[C@H](C)C(=O)N[C@H](CCCCN)C(=O)N[C@H](C)C(=O)N[C@H](C)C(=O)N[C@H](CCCCN)C(=O)N[C@H](CC(C)C)C(=O)N[C@H](CCCCN)C(=O)N[C@@H](C(=O)N[C@H](CC(C)C)C(=O)N[C@H](CC(C)C)C(=O)N[C@H](CCCCN)C(=O)N[C@H](C)C(=O)N[C@H](CC(C)C)C(=O)N[C@H](CO)C(=O)N[C@H](CCCCN)C(N)=O)[C@H](C)O)[C@H](C)O [Peptide D33]	1.8	14.6	0.2	33	5.3	16,100 deg cm2/dmol	58.7	22,000 deg cm2/dmol	15.8	5,900 deg cm2/dmol	0.1	10.8 µM	0.3	77.4	35.3	19.0 µM
CC(=O)N[C@H](C)C(=O)N[C@H](CC(C)C)C(=O)N[C@H](CCCCN)C(=O)N[C@H](CO)C(=O)N[C@H](CC(C)C)C(=O)N[C@H](CC(C)C)C(=O)N[C@H](CCCCN)C(=O)N[C@@H](C(=O)N[C@H](CC(C)C)C(=O)N[C@H](CO)C(=O)N[C@H](C)C(=O)N[C@H](C)C(=O)N[C@H](CCCCN)C(=O)N[C@H](CCCCN)C(=O)N[C@H](CCCCN)C(=O)N[C@H](CCCCN)C(=O)N[C@H](CC(C)C)C(=O)N[C@H](C)C(=O)N[C@@H](C(=O)N[C@H](CC(C)C)C(=O)N[C@H](CC(C)C)C(=O)N[C@H](CCCCN)C(=O)N[C@H](C)C(=O)N[C@H](CC(C)C)C(=O)N[C@H](CO)C(=O)N[C@H](CCCCN)C(N)=O)[C@H](C)O)[C@H](C)O [Peptide D34]	1.6	26.4	0.3	33	5.7	17,100 deg cm2/dmol	70.8	26,500 deg cm2/dmol	23.5	8,800 deg cm2/dmol	0.3	19.2 µM	0.4	77.2	35.3	35.1 µM
CC(=O)N[C@H](C)C(=O)N[C@H](CC(C)C)C(=O)N[C@H](CCCCN)C(=O)N[C@H](CO)C(=O)N[C@H](CC(C)C)C(=O)N[C@H](CC(C)C)C(=O)N[C@H](C)C(=O)N[C@@H](C(=O)N[C@H](CC(C)C)C(=O)N[C@H](CO)C(=O)N[C@H](CCCCN)C(=O)N[C@H](C)C(=O)N[C@H](CCCCN)C(=O)N[C@H](CCCCN)C(=O)N[C@H](CCCCN)C(=O)N[C@H](CCCCN)C(=O)N[C@H](CC(C)C)C(=O)N[C@H](CCCCN)C(=O)N[C@@H](C(=O)N[C@H](CC(C)C)C(=O)N[C@H](CC(C)C)C(=O)N[C@H](C)C(=O)N[C@H](C)C(=O)N[C@H](CC(C)C)C(=O)N[C@H](CO)C(=O)N[C@H](CCCCN)C(N)=O)[C@H](C)O)[C@H](C)O [Peptide D35]	0.9	20.2	0.4	33	5.5	14,750 deg cm2/dmol	92.8	34,750 deg cm2/dmol	26.7	10,000 deg cm2/dmol	0.4	14 µM and 14.0 µM	0.4	78.3	38.3	28 µM and 28.0 µM
CC(=O)N[C@H](C)C(=O)N[C@H](CC(C)C)C(=O)N[C@H](C)C(=O)N[C@H](CO)C(=O)N[C@H](CC(C)C)C(=O)N[C@H](CC(C)C)C(=O)N[C@H](CCCCN)C(=O)N[C@@H](C(=O)N[C@H](CC(C)C)C(=O)N[C@H](CO)C(=O)N[C@H](CCCCN)C(=O)N[C@H](C)C(=O)N[C@H](CCCCN)C(=O)N[C@H](CCCCN)C(=O)N[C@H](CCCCN)C(=O)N[C@H](CCCCN)C(=O)N[C@H](CC(C)C)C(=O)N[C@H](CCCCN)C(=O)N[C@@H](C(=O)N[C@H](CC(C)C)C(=O)N[C@H](CC(C)C)C(=O)N[C@H](CCCCN)C(=O)N[C@H](C)C(=O)N[C@H](CC(C)C)C(=O)N[C@H](CO)C(=O)N[C@H](C)C(N)=O)[C@H](C)O)[C@H](C)O [Peptide D36]	1.2	6.3	0.4	33	5.6	20,400 deg cm2/dmol	69.7	26,100 deg cm2/dmol	15.2	5,700 deg cm2/dmol	0.4	4.4 µM	0.4	79.0	38.5	8.8 µM

From patent US10874745B2, “Antimicrobial peptides and methods of treating gram-negative pathogens: polar and non-polar face analogs” (priority 2017, dated 2020)
